This is an account of results in the RNAGym collection of RNA variant scans (doi:10.7554/elife.90254).

The source gives no read counts; variants with many changes may rest on few reads.

The labels stand for the following.
B1: LINE1-mini (parent)
chain: GGCAGAGCUCAACACAGCGUGGCAAAGUGGCUGUGGCUAGACUGCC

The data set covers variants of B1. Put plainly: self-cleavage, relative activity (ratio to wild type); higher = more cleavage; in vitro, sequencing; the parent is a self-cleaving ribozyme.
With GGCAGAGCUCAACACCGCGUGGCAAAGUGGCUGUGACUAUACUGCC [A16C G36A G40U], the self-cleavage amounted to 0.15.
Consider GGCAGAGCUCAACACCGCGUGGAAGCGUGGCUGUGGUUAGACUGCC [A16C C23A A25G A26C C37U], for which the self-cleavage came out at 0.01.
Next, GGCAGAGCUCAACAUAGCGUGGCAAAGUGGCGGUGGCUAGACUGCA [C15U U32G C46A]: 0.2; GGCAGAGCUCAACACGGCGUUGCAAAGUGGCUGUGGCUAGACUGAC [A16G G21U C45A]: 0.05.
For GGCAGAGCUCAACACGGCGUGGCAAAUUGGCUGUGGUUCGACUGCA [A16G G27U C37U A39C C46A], the self-cleavage was found to be 0.01.
For GGCAGAGCUCAACACGGCGUUGCAAAGUGCCUGUGGCUAGACUGCC [A16G G21U G30C], the self-cleavage came to 0.7.
Next, GGCAGAGCUCAACACGGCGUUGCAAAGUGUCUGUGGCUAGACUGCC [A16G G21U G30U]: 0.35; GGCAGAGCUCAACACCGCGCGGCACAGUGGCUGUGAGUAGACUGAC [A16C U20C A25C G36A C37G C45A]: 0.01; GGCAGAGCUCAACAUAGCGUGGCAAAGUGGCUGUGGCCGGACUGCC [C15U U38C A39G]: 0.14.
Regarding GGCAGAGCUCAACACCGCUUGGCAAAGUGGCUGUCGCUAGACUGCC [A16C G19U G35C], the self-cleavage turned out to be 0.04.
Next, GGCAGAGCUCAACACGGCAUGGCAAAGUGGAUUUGGCUAGACUGCC [A16G G19A C31A G33U]: 0.02.
Next, GGCAGAGCUCAACACCGCGUGGCAAAGUGGCUGUGGGUACACUGCC [A16C C37G G40C]: 0.03; GGCAGAGCUCAACACCGCCUGGCACAGUGGCUGUGGCUAGACUGCC [A16C G19C A25C]: 0.89; GGCAGAGCUCAACACCGCGUGGCAAAGGGGCUUUGGCUAGACUGUC [A16C U28G G33U C45U]: 0.
On to GGCAGAGCUCAACAUAGCGUGGCAAAGUGGCUGUGGCCAAACUGCC [C15U U38C G40A], for which the self-cleavage amounted to 0.21.
Turning to GGCAGAGCUCAACAUAGCGUGGCAAAGUGGCUGUGGCUAGACCUCC [C15U U43C G44U], the self-cleavage was determined as 0.02.
For the variant GGCAGAGCUCAACACCACGUGGCAAAGUGGCUGUGGCUACACUGCC [A16C G17A G40C], the self-cleavage came to 0.01.
Next, GGCAGAGCUCAACACGGGGUGGCAAUGUGGCUGUGGCUAGACUGCC [A16G C18G A26U]: 0.11; GGCAGAGCUCAACACCGCGUGGCAAAGUGGCUUUGGCCAGACUGCC [A16C G33U U38C]: 0.03.
On to GGCAGAGCUCAACACGGGGUGGCAAAAUGGCUGUGGCUAGACUGUC [A16G C18G G27A C45U], for which the self-cleavage worked out at 0.06.
As to GGCAGAGCUCAACACCUCGUGGCAAAGUGCCUGAGACUACACCGCC [A16C G17U G30C U34A G36A G40C U43C], the self-cleavage was 0.03.
With GGCAGAGCUCAACACCGCGUGGCAACGUCGCUGUGGCUGGACUGCC [A16C A26C G29C A39G], the self-cleavage was determined as 0.03.
With GGCAGAGCUCAACACCGCGUGGCAAAAUGGCUGGGGCUAGACUGCC [A16C G27A U34G], the self-cleavage worked out at 0.03.
Next, GGCAGAGCUCAACACCCCGUGGCAAAGUGGCUGUGGCUAGACUCCC [A16C G17C G44C]: 0.04; GGCAGAGCUCAACACCGCGAGGAAAAGUGGCUGUGGAUAGACUGCC [A16C U20A C23A C37A]: 0.02; GGCAGAGCUCAACACGCCGUGGCAAAGUGGCUGUGGAUAGACUGCC [A16G G17C C37A]: 0.02.
For the variant GGCAGAGCUCAACACGGCGUGGCAAAGUGGUUGUAGUUACACUGCC [A16G C31U G35A C37U G40C], the self-cleavage is 0.
Take GGCAGAGCUCAACACGGCGUGGCACGGUGGCUGUGGCUAGACUGCC [A16G A25C A26G]: the self-cleavage was determined as 0.01.
Next, GGCAGAGCUCAACACCGCGUAGCGAAGUGGCUGUGGCUAGACUGCA [A16C G21A A24G C46A]: 0.01; GGCAGAGCUCAACACCGCGUGGCAAAGUGGCUGCGGCUUGACUGCC [A16C U34C A39U]: 0.01; GGCAGAGCUCAACACGGUGUGGCAAAGGGUCUGUGGCUAGACUGCC [A16G C18U U28G G30U]: 0.01.
The result for GGCAGAGCUCAACACCGCGUAGCAAAGUGGCUGUUGCAAGAGUUCC [A16C G21A G35U U38A C42G G44U] reads 0.02; that for GGCAGAGCUCAACACGGCGUGGCAAAGUGGGUGUGGCUAGACAGCC [A16G C31G U43A], 0.01; that for GGCAGAGCUCAACACCGCGUGGCAAAGUGGCUCUGGGUAGACUGCC [A16C G33C C37G], 0.01.
The result for GGCAGAGCUCAACACGGCGUGGCAAUGUGACUGUGGCUAGACUGCC [A16G A26U G30A] reads 0.4; that for GGCAGAGCUCAACACGGCGUGGUAUAGUGGCUGUGCAUAGACGGCC [A16G C23U A25U G36C C37A U43G], 0.03; that for GGCAGAGCUCAACACGGAAUGACAAAGUGGCUGUGGCUAGACUGAC [A16G C18A G19A G22A C45A], 0.05.
With GGCAGAGCUCAACACCCCGUGGCAAAGGGGCUGUGGCUAAACUGCC [A16C G17C U28G G40A], the self-cleavage was found to be 0.03.
The result for GGCAGAGCUCAACACCGCGUGGGAAAGUGGCAGUGGCUAGAAUGCC [A16C C23G U32A C42A] reads 0.09; that for GGCAGAGCUCAACACCUCGUGGCAAAGUGGCUGUGACUAGACUGCC [A16C G17U G36A], 0.09; that for GGCAGAGCUCAACACCUCGUGGCAAAGUGGCUGUUGCUAGACUGCC [A16C G17U G35U], 0.05.
On to GGCAGAGCUCAACACCACGUGGCAAGGUGGCUGUGACUAGACUGCC [A16C G17A A26G G36A], for which the self-cleavage worked out at 0.01.
Next, GGCAGAGCUCAACACGGCGUGGCCAAGUGACGGUGGCUUGACUGCC [A16G A24C G30A U32G A39U]: 0.05; GGCAGAGCUCAACACCGCGUGGCAUAGUGGCUGUGGCUAGGCUGCC [A16C A25U A41G]: 0.02; GGCAGAGCUCAACACCGGGUAGCAAAGUUGCUGUGGCUAGACUGCC [A16C C18G G21A G29U]: 0.11.
The result for GGCAGAGCUCAACACGGAGUGGCAAAGUGGCUGGCGCUAGACUGCC [A16G C18A U34G G35C] reads 0.04; that for GGCAGAGCUCAACACGGUGUGGCAAAGUGGCAGUGGCUAGUAUGCC [A16G C18U U32A A41U C42A], 0.03; that for GGCAGAGCUCAACACGGCGUGGCAAAGUGGCUGUGGCUGGACUGAG [A16G A39G C45A C46G], 0.01.
The result for GGCAGAGCUCAACACCGCGUGGCAAAGGGGCUGUUGCUAGACUGCC [A16C U28G G35U] reads 0.01; that for GGCAGAGCUCAACACCCCGUGGCAAAGUGGCUGUGGCUAGAGUGAC [A16C G17C C42G C45A], 0.07.
Turning to GGCAGAGCUCAACACCGAGUGGCGAAGUGGCUGUGGCUAUACUGCC [A16C C18A A24G G40U], the self-cleavage stood at 0.01.
The result for GGCAGAGCUCAACACCACGUGGCAGAGUGGCUGUGGCUAUACUGCC [A16C G17A A25G G40U] reads 0.04.
Next, GGCAGAGCUCAACACGCCGUGGCAGAUUGGCUGUGGCUAGACUGCC [A16G G17C A25G G27U]: 0; GGCAGAGCUCAACACCGCGCGGCAAAGUGGCUGUGGCUAGAAUGCC [A16C U20C C42A]: 0.06; GGCAGAGCUCAACACCGCGUGGCAAAGAGGCUGUGACUAGACUGCC [A16C U28A G36A]: 0.02.
Turning to GGCAGAGCUCAACACCGCGUGGAAAAGUCGCUGGGGCUAGACUGCC [A16C C23A G29C U34G], the self-cleavage was 0.03.
